Laboratory results: PubChem BioAssay (NCATS)
Inconclusive means that the source gave no clear call. Such entries were picked first, then a sample of the others. Potencies beside an inconclusive call are fits to weak or partial responses and may not hold up. Calls of active or inactive are those of the source. Calls follow the shape of the dose curve; as a rule, active = well fitted inhibition curve with a large enough effect; inconclusive = small, poorly fitted or top-dose-only effect; inactive = flat fitted curve, though single readings scatter.

biological target: Flap endonuclease 1 (Homo sapiens) (UniProt P39748); experiment: qHTS Assay for the Inhibitors of FEN1: Confirmatory Assay for Cherry-picked Compounds (AID 720498); conditions: FEN1 flap cleavage, TAMRA/BHQ2 fluorogenic DNA substrate; also: nearly all actives have a fitted effect of over 60% in size
Outline: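 Human FEN1 (10 nM reagent) was preincubated with compounds for 15 min at room temperature, then 50 nM final double-flap DNA substrate (5'-TAMRA flap, BHQ-2 quencher strand) was added. Fluorescence (ex 525/em 598 nm) was read at 0 and 15 min.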
Potency is read from the fitted curve at half-maximal effect; tags tell the direction and shape of the fitted curve.

Sequence of UniProt P39748 (P39748 whole entry, looked up): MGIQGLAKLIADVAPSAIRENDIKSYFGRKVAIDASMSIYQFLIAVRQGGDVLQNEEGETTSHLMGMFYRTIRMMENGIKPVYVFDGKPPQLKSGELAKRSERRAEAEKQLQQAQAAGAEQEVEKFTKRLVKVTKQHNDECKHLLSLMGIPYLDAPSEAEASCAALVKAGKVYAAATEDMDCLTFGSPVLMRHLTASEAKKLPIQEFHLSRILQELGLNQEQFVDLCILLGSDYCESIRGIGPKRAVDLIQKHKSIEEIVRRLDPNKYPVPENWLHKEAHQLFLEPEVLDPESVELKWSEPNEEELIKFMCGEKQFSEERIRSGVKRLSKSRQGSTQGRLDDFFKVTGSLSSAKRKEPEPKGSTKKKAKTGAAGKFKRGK

Potency, inconclusive:
COc1cc(/C=C2\SC(=S)N(C(Cc3ccccc3)C(=O)O)C2=O)ccc1O (stereo not given) 42.6 µM [inhibitor, partial curve], COc1ccc2[nH]c3c(=O)n(CCCCC(=O)NCCN4CCCC4)c(=S)[nH]c3c2c1 37.9 µM [inhibitor, partial curve], Cc1ccc(C)c(Nc2nc3c(S(=O)(=O)c4ccc(Br)cc4)nnn3c3ccsc23)c1 60.1 µM [inhibitor, partial curve], S=c1[nH]nc(-c2cc(-c3ccccc3)n[nH]2)n1/N=C/c1c(Cl)cccc1Cl 84.9 µM [inhibitor, partial curve], Cc1[nH]c2ccccc2c1/C=C/c1cc[n+](C)cc1 47.8 µM [inhibitor, partial curve], COc1ccc(COCC(O)CN2CCC(CN3C(=O)c4cccc5cccc(c45)C3=O)CC2)cc1OC (stereo not given) 47.8 µM [inhibitor, partial curve], Oc1c(C=Nc2cccc3nsnc23)ccc2ccccc12 42.6 µM [inhibitor, partial curve], O=C(CCN1C(=O)/C(=C\C=C\c2ccccc2)SC1=S)Nc1ccc(C(=O)O)cc1 67.5 µM [inhibitor, partial curve], Nc1cc(S(=O)(=O)O)cc([N+](=O)[O-])c1O 84.9 µM [inhibitor, partial curve]

Potency, active:
Cc1ccc2nc(N=C(N)N)nc(C)c2c1 33.8 µM
